Experimental data: the supplement of paper PMC10126150
Values marked as one replicate rest on one cluster of the flow cell; about a third of the high ones do not repeat.

System: ATP
Assay: switch fluorescence ratio, 500 uM ATP over buffer (Cy3 cluster intensity, sum of 5 cycles each) (fold (ratio)); higher = stronger signal-on switching upon ATP binding; sequences stand for … in TCGTCGGCAGCGTCAGATGTGTATAAGAGACAGTTTTTTTTTTTTTTTTTTTTTTTTT…TC
Conditions: aptamer strand: ATP DNA aptamer (quencher-CACCTGGGGGAGTATTGCGGAGGAAGG + anchor), 100 nM annealed; ATP concentration: 500 uM; one replicate
How it was run: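 Switching-strand clusters labelled with Cy3 on a modified Illumina MiSeq flow-cell were annealed to 100 nM quencher-labelled ATP aptamer, imaged in selection buffer, and re-imaged after 15 min with 500 uM ATP at 22 °C. This was done over five cycles with NaOH stripping and re-annealing in between. The fluorescence ratio is summed target-cycle over summed buffer-cycle Cy3 intensity per cluster, averaged per switch-domain sequence, excluding clusters outside 100-1000 RFU.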
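Note: ATP exposure 15 min at 22 °C before imaging.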

Row | Sequence | switch fluorescence ratio
1 | GTTCGGTCCA | 1
2 | AGTCAACCA | 0.981
3 | ATCGATATCC | 1.03
4 | TTGACTGAGA | 1.02
5 | CGAACTGGGA | 0.977
6 | GACGTATGCC | 1.05
7 | AGGTAGGTTG | 1.02
8 | TCATCGCCAC | 1.73
9 | AGGAAGTCTA | 1.1
10 | AGGGCGTTT | 0.991
11 | TTCAACGAAG | 0.999
12 | CAGAGCGATA | 5.83
13 | TGGCTACTAG | 0.998
14 | CGATTGTTGT | 1.02
15 | AGGGAGCAGC | 1.01
16 | CATACGGCCA | 1.11
17 | GAAGCACTGA | 1.2
18 | TCACCTCGAG | 0.969
19 | GGATTTACTT | 1.04
20 | CCGGGACTAT | 1.14
21 | CCATCCTCAG | 1.54
22 | TTATATCGA | 1.02
23 | AATAGACAGT | 1.01
24 | CGTTTGAAGT | 0.934
25 | ATCGCCGATG | 0.994

Row | Sequence | switch fluorescence ratio
26 | ATTGTAAGAG | 1.03
27 | TTTTATATCG | 1.07
28 | GGGGCAAGAA | 1.17
29 | CATATAAAGC | 1.05
30 | ATATGTCGTA | 0.991
31 | GGATATATTA | 0.974
32 | AAGAATCAGT | 1.02
33 | TGTTTTGAGG | 0.993
34 | ACAAGAATGC | 1.1
35 | CTGTGGACGG | 0.998
36 | TGCGTCACGT | 1.02
37 | ACTATGACGG | 1.03
38 | TTGTATGTGA | 0.992
39 | CTGGAAAGGA | 1
40 | AACACCCTT | 1.04
41 | TTGGACCCCG | 0.962
42 | CGAACTAGTG | 1.01
43 | CTTTCATCAT | 1.01
44 | CGCATATCAG | 1.11
45 | GGGGTAGGA | 0.974
46 | ACAGATGCTT | 1.02
47 | GGAGAGTGTG | 1.01
48 | TCCAGGATCA | 0.965
49 | AAGTTGCGAG | 1.02
50 | TAGCTGCAGA | 0.993

Row | Sequence | switch fluorescence ratio
51 | TTCGATATAC | 3.67
52 | GGACAGGAGA | 1.02
53 | TGGTCTAAC | 0.969
54 | AATAGTAAGG | 0.996
55 | CCCTATACAG | 1.04
56 | TGTATTAACA | 0.994
57 | GTGCTATAAA | 1.02
58 | CTTTTCCGTG | 1.04
59 | GAACGAGGAG | 0.974
60 | GTTAGGAACG | 1.05
61 | AGATTTAGTT | 1
62 | TGATTGTTT | 0.965
63 | TGATACATGG | 0.994
64 | CATATGCGCA | 1.01
65 | ATTCGGGGAT | 0.96
66 | TCCGCTCTTG | 1.76
67 | AATACCAGGC | 1.1
68 | TCTACGTATT | 1.14
69 | AGTTCGGACT | 1.01
70 | CGGCACTGTT | 0.963
71 | TGTTAGAGTG | 1.04
72 | AAATTCCGAC | 1.82
73 | AGCGGTCACA | 1.03
74 | TTGGATTCGA | 0.98
75 | TTTTTGATCA | 1.01

Row | Sequence | switch fluorescence ratio
76 | ACGTACCGTG | 1.57
77 | TGGTCGCCTA | 1.03
78 | GTCGGGGTG | 1.01
79 | TCAGGAAAAC | 1.05
80 | CCAAACCTAT | 1.04
81 | TCTTCTAGTA | 1.01
82 | ATTCAGTGC | 1.05
83 | ATGACTGAAG | 0.962
84 | CTTATATAAG | 1.06
85 | AGTTCACGCT | 1
86 | TGGAATCCTA | 0.969
87 | GCTTTACTTA | 1.03
88 | CGGCTCTGGA | 1.09
89 | CTTAGGAGCC | 0.978
90 | GAGCAAGTAC | 2
91 | CACTGTAGGC | 1.18
92 | GAAGTTACAG | 1.05
93 | GCGGATAAAA | 1.08
94 | TTGGCCTAGA | 1.01
95 | CCTGCAAA | 5.3
96 | CCCAGGGGGT | 1.54
97 | GTGAACCATA | 1.01
98 | CTTATCAATG | 1
99 | TATAAACGAT | 0.957
100 | GACTTTGGAC | 0.991

Row | Sequence | switch fluorescence ratio
101 | TGCTCATCCG | 1.13
102 | ATAGCGTACC | 1.29
103 | AATGGAGTAC | 1.07
104 | GGCATCCGGG | 0.941
105 | AGGGTGGCCC | 0.981
106 | TTCGAAATAG | 2.45
107 | AGGAACGGGC | 1.08
108 | TTTCGCCTCC | 1.23
109 | GTCCTTCGGA | 0.985
110 | GCAGCTTGGG | 1.03
111 | TTGCCAAAAA | 4.89
112 | ATTAATAAAT | 1.02
113 | CCAGCTTAG | 1.06
114 | TTCTGGTTGG | 0.914
115 | GCACTTTCTG | 0.967
116 | AGATTGCGCT | 1.05
117 | GTAGGCTGCA | 0.945
118 | GATGAAAGTT | 1.02
119 | GCTAGTGGAT | 0.994
120 | CTATTTCGGA | 0.988
121 | AAAGGCTCTG | 0.97
122 | AGCCTCGTTG | 1
123 | CACGTCGCGC | 1.08
124 | TTAAATCGCT | 1.04
125 | AACTCTAGTG | 0.958

Row | Sequence | switch fluorescence ratio
126 | TGCTGATAGC | 0.994
127 | TATTGATTTT | 1.04
128 | CGGTACCCAG | 1.03
129 | CCCGTTCAAG | 0.973
130 | TTATGTCACA | 1.03
131 | ACTGCGTTCG | 1.03
132 | TAACCGCTCT | 1.11
133 | AAGGAGTCGC | 1.03
134 | AACTTCTGAG | 1.03
135 | CCATTTGGTT | 0.964
136 | CATAAGTCAC | 1.11
137 | CTGAGGGACG | 0.953
138 | CCTTAGGGGA | 1.57
139 | GGCCTGCTTC | 1.02
140 | TGCAGTTCCG | 0.977
141 | GTGAATTTAA | 0.993
142 | GTGAGGAAAA | 1.04
143 | AAAGATTCCT | 1.03
144 | AGGCGTCTGC | 1
145 | TTTCCTGGGA | 0.993
146 | TCCCCTTCGT | 1.06
147 | GCATTGGACG | 1.03
148 | ATCCTTGCGT | 1.04
149 | GAAATTACAC | 1.09
150 | TATCGTATAT | 0.97

Row | Sequence | switch fluorescence ratio
151 | TGGATGCATA | 0.99
152 | CCAGCTTGTG | 1.01
153 | TTTTTTTCA | 0.983
154 | GTCCGATCCT | 1.06
155 | ATCATCGCGG | 1.03
156 | TATTGGTGTG | 0.98
157 | AAAAATCTGT | 0.955
158 | TCCTTTGTT | 0.96
159 | GCGTTCGGAA | 1.04
160 | TTGTAAGGCA | 1.08
161 | AAAGAAAAGC | 0.981
162 | GGCGTTCTAC | 1.02
163 | ACTTAGCGG | 1.04
164 | TCCTATCTG | 1.8
165 | GTTACTGAGA | 1.04
166 | CCAGCATAAG | 1.37
167 | GTTACCGTCG | 0.972
168 | GCTTAAGCTC | 1
169 | AAATTTAACG | 1.04
170 | CGCAAATGCC | 1.71
171 | AGGCTGTCGA | 1.03
172 | ATGTCACAGC | 0.981
173 | TAGATACTGC | 1.05
174 | TACGAGGGCG | 1.01
175 | GGGTAGGACT | 0.999

Row | Sequence | switch fluorescence ratio
176 | GTAGTAGCAA | 1.68
177 | ATCCCCTAGG | 4.3
178 | AAAGCATTAA | 1.09
179 | TGAGCGTATA | 1.04
180 | TACGAGGTG | 1.04
181 | ATCGTCAGCT | 0.974
182 | CTAAGCGATT | 1.13
183 | AGATCGTACG | 0.958
184 | AAATCATCT | 1
185 | AACAGGAAAG | 1.02
186 | ACATAATTCT | 1.03
187 | CGGCTGGACC | 1.03
188 | TGTTCTTCCT | 1.09
189 | GAAGTTGGTA | 0.963
190 | TATATACATA | 1.05
191 | CATTCAGCGG | 1.05
192 | ATATAGAGGT | 0.952
193 | CGCTCTGAAC | 1.19
194 | GTTAGCTGGG | 1.02
195 | AAATTTAGAC | 1.01
196 | GTGAATAACA | 0.974
197 | TGTTGTCGAG | 0.981
198 | ATTACGGGTA | 1.03
199 | ATATAGGCAC | 1.04
200 | ATGACGACTT | 1.02
